Here are results for 22 compounds from the supplement of paper PMC4604168 (melanoma cell lines).

The list shows a part of the results. Many values rest on one well or one pass, so single values are uncertain.
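Further: cells treated in 1,536-well plates, then fixed and DAPI-stained, with nuclei counted from automated high-throughput microscope images.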

This test has as its system RVH-421. Put plainly: cell count relative to DMSO control; melanoma cells; higher = more viable cells. The note with it: library dose: standard library concentration; 72 h.
`Nc1ncn([C@H]2C[C@H](O)[C@@H](CO)O2)c(=O)n1` [decitabine] + C#Cc1cccc(Nc2ncnc3cc(OCCOC)c(OCCOC)cc23)c1 [erlotinib] (first compound 0.5 µM, partner dose 4 µM) displayed a cell count of 62.5%.
The result for `CC(=O)O[C@@]12CO[C@@H]1C[C@H](O)[C@@]1(C)C(=O)[C@H](O)C3=C(C)[C@@H](OC(=O)[C@H](O)[C@@H](NC(=O)OC(C)(C)C)c4ccccc4)C[C@@](O)([C@@H](OC(=O)c4ccccc4)[C@H]21)C3(C)C` [Docetaxel] + OCc1c[nH]c2ccccc12 [Indole-3-carbinol] (first compound 0.0005 µM, partner dose 4 µM) reads 62.5%.
Under `CO[C@H]1C[C@@H]2CC[C@@H](C)[C@@](O)(O2)C(=O)C(=O)N2CCCC[C@H]2C(=O)O[C@H]([C@H](C)C[C@@H]2CC[C@@H](OCCO)[C@H](OC)C2)CC(=O)[C@H](C)/C=C(\C)[C@@H](O)[C@@H](OC)C(=O)[C@H](C)C[C@H](C)/C=C/C=C/C=C/1C` [everolimus] + COc1cc(Nc2ncc(F)c(Nc3ccc4c(n3)NC(=O)C(C)(C)O4)n2)cc(OC)c1OC [Tamatinib] (first compound 0.1 µM, partner dose 2 µM) stands 77.8%; under `Nc1ncn([C@H]2C[C@H](O)[C@@H](CO)O2)c(=O)n1` [decitabine] + CN(C)S(=O)(=O)c1ccc2c(c1)/C(=C/c1cc3c([nH]1)CCCC3)C(=O)N2 [SU6656] (first compound 0.5 µM, partner dose 2 µM), 76.4%.
As for `CO[C@H]1C[C@@H]2CC[C@@H](C)[C@@](O)(O2)C(=O)C(=O)N2CCCC[C@H]2C(=O)O[C@H]([C@H](C)C[C@@H]2CC[C@@H](OCCO)[C@H](OC)C2)CC(=O)[C@H](C)/C=C(\C)[C@@H](O)[C@@H](OC)C(=O)[C@H](C)C[C@H](C)/C=C/C=C/C=C/1C` [everolimus] + COc1cc2ncnc(Nc3ccc(Oc4ccccc4)cc3)c2cc1OC [SrcI1] (first compound 0.1 µM, partner dose 10 µM), the cell count came out at 105%.
Compound `CO[C@H]1C[C@@H]2CC[C@@H](C)[C@@](O)(O2)C(=O)C(=O)N2CCCC[C@H]2C(=O)O[C@H]([C@H](C)C[C@@H]2CC[C@@H](OCCO)[C@H](OC)C2)CC(=O)[C@H](C)/C=C(\C)[C@@H](O)[C@@H](OC)C(=O)[C@H](C)C[C@H](C)/C=C/C=C/C=C/1C` [everolimus] + COc1ccc(-c2ccc3c(N4CCOCC4)nc(N4C[C@@H](C)O[C@@H](C)C4)nc3n2)cc1CO [KU0063794] (first compound 0.1 µM, partner dose 0.1 µM) returned a cell count of 56.3%.
The result for `CC(=O)c1c(C)c2cnc(Nc3ccc(N4CCNCC4)cn3)nc2n(C2CCCC2)c1=O` [palbociclib] + COc1ccc(Cl)c(Nc2nc3ccccc3nc2NS(=O)(=O)c2cccc(NC(=O)C(C)(C)N)c2)c1 [XL147] (first compound 0.2 µM, partner dose 4 µM) reads 72.2%; that for `CC(=O)c1c(C)c2cnc(Nc3ccc(N4CCNCC4)cn3)nc2n(C2CCCC2)c1=O` [palbociclib] + COc1ccc2c(c1)CCC1C2CCC2(C)C(NCCCCCCN3C(=O)C=CC3=O)CCC12 [U73122] (first compound 0.2 µM, partner dose 2 µM), 94%.
The result for `Nc1ccn([C@@H]2O[C@H](CO)[C@@H](O)C2(F)F)c(=O)n1` [gemcitabine] + CO[C@@H]1[C@H](N(C)C(=O)c2ccccc2)C[C@H]2O[C@]1(C)n1c3ccccc3c3c4c(c5c6ccccc6n2c5c31)C(=O)NC4 [Midostaurin] (first compound 0.002 µM, partner dose 0.4 µM) reads 119%; that for `Nc1ccn([C@@H]2O[C@H](CO)[C@@H](O)C2(F)F)c(=O)n1` [gemcitabine] + Cc1nc(Nc2ncc(C(=O)Nc3c(C)cccc3Cl)s2)cc(N2CCN(CCO)CC2)n1 [dasatanib] (first compound 0.002 µM, partner dose 0.02 µM), 106%.
Under `CC(=O)O[C@@]12CO[C@@H]1C[C@H](O)[C@@]1(C)C(=O)[C@H](O)C3=C(C)[C@@H](OC(=O)[C@H](O)[C@@H](NC(=O)OC(C)(C)C)c4ccccc4)C[C@@](O)([C@@H](OC(=O)c4ccccc4)[C@H]21)C3(C)C` [Docetaxel] + Cc1cc(Nc2cc(N3CCN(C)CC3)nc(/C=C/c3ccccc3)n2)n[nH]1 [ENMD2076] (first compound 0.0005 µM, partner dose 0.2 µM) stands 67.9%; under `CO[C@H]1C[C@@H]2CC[C@@H](C)[C@@](O)(O2)C(=O)C(=O)N2CCCC[C@H]2C(=O)O[C@H]([C@H](C)C[C@@H]2CC[C@@H](OCCO)[C@H](OC)C2)CC(=O)[C@H](C)/C=C(\C)[C@@H](O)[C@@H](OC)C(=O)[C@H](C)C[C@H](C)/C=C/C=C/C=C/1C` [everolimus] + NCC(=O)Nc1ccc(-n2nc(C(F)(F)F)cc2-c2ccc3c(ccc4ccccc43)c2)cc1 [OSU03012] (first compound 0.1 µM, partner dose 5 µM), 78.4%.
As for `CC(=O)c1c(C)c2cnc(Nc3ccc(N4CCNCC4)cn3)nc2n(C2CCCC2)c1=O` [palbociclib] + Oc1cc(-c2nc(-c3ccccc3)[nH]c2-c2ccncc2)ccc1Cl [L779450] (first compound 0.2 µM, partner dose 1 µM), the cell count came to 75.6%.
Under `Nc1ccn([C@@H]2O[C@H](CO)[C@@H](O)C2(F)F)c(=O)n1` [gemcitabine] + CC1(C)NC(=O)N(c2ccc([N+](=O)[O-])c(C(F)(F)F)c2)C1=O [nilutamide] (first compound 0.002 µM, partner dose 5 µM) stands 92.8%; under `CO[C@H]1C[C@@H]2CC[C@@H](C)[C@@](O)(O2)C(=O)C(=O)N2CCCC[C@H]2C(=O)O[C@H]([C@H](C)C[C@@H]2CC[C@@H](OCCO)[C@H](OC)C2)CC(=O)[C@H](C)/C=C(\C)[C@@H](O)[C@@H](OC)C(=O)[C@H](C)C[C@H](C)/C=C/C=C/C=C/1C` [everolimus] + C=CCNC1=C2C[C@@H](C)C[C@H](OC)[C@H](O)[C@@H](C)/C=C(\C)[C@H](OC(N)=O)[C@@H](OC)/C=C\C=C(/C)C(=O)NC(=CC1=O)C2=O [Tanespimycin] (first compound 0.1 µM, partner dose 0.01 µM), 63.9%; under `CC(=O)O[C@@]12CO[C@@H]1C[C@H](O)[C@@]1(C)C(=O)[C@H](O)C3=C(C)[C@@H](OC(=O)[C@H](O)[C@@H](NC(=O)OC(C)(C)C)c4ccccc4)C[C@@](O)([C@@H](OC(=O)c4ccccc4)[C@H]21)C3(C)C` [Docetaxel] + CC1(C)NC(=O)N(c2ccc([N+](=O)[O-])c(C(F)(F)F)c2)C1=O [nilutamide] (first compound 0.0005 µM, partner dose 5 µM), 56.6%.
For `CC(=O)c1c(C)c2cnc(Nc3ccc(N4CCNCC4)cn3)nc2n(C2CCCC2)c1=O` [palbociclib] + NCC(=O)Nc1ccc(-n2nc(C(F)(F)F)cc2-c2ccc3c(ccc4ccccc43)c2)cc1 [OSU03012] (first compound 0.2 µM, partner dose 5 µM), the cell count came out at 66.2%.
The result for `Nc1nc(F)nc2c1ncn2[C@@H]1O[C@H](CO)[C@@H](O)[C@@H]1O` [fludarabine] + Nc1cccc2c1CN(C1CCC(=O)NC1=O)C2=O [lenalidomide] (first compound 1 µM, partner dose 5 µM) reads 73.8%; that for `CC(=O)O[C@@]12CO[C@@H]1C[C@H](O)[C@@]1(C)C(=O)[C@H](O)C3=C(C)[C@@H](OC(=O)[C@H](O)[C@@H](NC(=O)OC(C)(C)C)c4ccccc4)C[C@@](O)([C@@H](OC(=O)c4ccccc4)[C@H]21)C3(C)C` [Docetaxel] + Oc1cc(-c2nc(-c3ccccc3)[nH]c2-c2ccncc2)ccc1Cl [L779450] (first compound 0.0005 µM, partner dose 1 µM), 55.6%; that for `Nc1ncn([C@H]2C[C@H](O)[C@@H](CO)O2)c(=O)n1` [decitabine] + CC1(C)NC(=O)N(c2ccc([N+](=O)[O-])c(C(F)(F)F)c2)C1=O [nilutamide] (first compound 0.5 µM, partner dose 5 µM), 83.5%.
Under `CC(=O)O[C@@]12CO[C@@H]1C[C@H](O)[C@@]1(C)C(=O)[C@H](O)C3=C(C)[C@@H](OC(=O)[C@H](O)[C@@H](NC(=O)OC(C)(C)C)c4ccccc4)C[C@@](O)([C@@H](OC(=O)c4ccccc4)[C@H]21)C3(C)C` [Docetaxel] + CN(NC(=O)CC(=O)NN(C)C(=S)c1ccccc1)C(=S)c1ccccc1 [STA4783] (first compound 0.0005 µM, partner dose 0.03 µM) stands 37.6%; under `CC(=O)O[C@@]12CO[C@@H]1C[C@H](O)[C@@]1(C)C(=O)[C@H](O)C3=C(C)[C@@H](OC(=O)[C@H](O)[C@@H](NC(=O)OC(C)(C)C)c4ccccc4)C[C@@](O)([C@@H](OC(=O)c4ccccc4)[C@H]21)C3(C)C` [Docetaxel] + O=C(O)[C@@H]1[O][Sb](=[O])([O][Sb]2(=[O])[O][C@H]([C@H](O)CO)[C@H](O)[C@H](C(=O)O)[O]2)[O][C@H]([C@H](O)CO)[C@@H]1O [stibogluconate] (first compound 0.0005 µM, partner dose 10 µM), 57.5%.
